The results in this text go back to ChEMBL document CHEMBL4888484, “Replenishing the malaria drug discovery pipeline: Screening and hit evaluation of the MMV Hit Generation Library 1 (HGL1) against asexual blood stage Plasmodium falciparum ,using a nano luciferase reporter read-out” (2022).

Out of some 150,000 compounds screened, about 540 (0.36%) showed an effect of 50% or more. Some of the results follow.

In the experiment the test system is Plasmodium falciparum. Kind of experiment: Primary screen in NF54 nanoGlo assay, in single point, at 2uM, 72h; a lower Z score goes with more inhibition. In kind it is functional, Erythrocyte. The note with it: timepoint 72 hour.
Consider `O=C(NCc1ccco1)NC1CCCCCC1`, for which the “% Inhibition” value is reported as -5% and the Z score is reported as 0.55.
Regarding `CCCN(CCC)C(=O)[C@@H]1COC2(CCC(C)CC2)N1C(=O)c1ccc(F)cc1` (stereo partly drawn), the “% Inhibition” value was -5% and the Z score turned out to be 1.01.
Regarding `Cn1cnc(CCNC(=O)[C@@](C)(O)C2CC2)c1`, the “% Inhibition” value is given as -11% and the Z score is 2.15.
`Cc1cccc(-n2nc(C)c3sc(N(C)CC(=O)N[C@@H](C)c4ccc(C)c(C)c4)nc32)c1`: the “% Inhibition” value is listed as -4% and the Z score is 0.6.
Consider `CCCN1C[C@@H](NCc2cnc(N3CCCC3)s2)CC1=O`, for which the “% Inhibition” value is reported as -3% and the Z score stood at 0.4.
Turning to `CC1CCN([C@@H](C)C(=O)NC(C)(C)C)CC1`, the “% Inhibition” value is on record as -11% and the Z score worked out at 1.16.
In the case of `O=S(=O)(Nc1ccc2nncn2c1)c1ccc(F)cc1F`, the “% Inhibition” value is listed as -1% and the Z score is on record as 0.1.
Turning to `CC(C)[C@@H](C(=O)NC[C@H]1CC[C@H](C(=O)O)CC1)n1cnc2ccccc2c1=O`, the “% Inhibition” value is on record as -9% and the Z score worked out at 1.28.
As for `COc1cc(OC)c(NC(=O)Cc2c(C(=O)O)c(C)cn2C)cc1Cl`, the “% Inhibition” value turned out to be 2% and the Z score is recorded as -0.29.
With `Cc1nc(C(=O)Nc2nccs2)c(-c2ccccc2)s1`, the “% Inhibition” value is listed as -6% and the Z score came to 1.12.
In the case of `Cc1nnc(N(C)Cc2ccc(Cl)s2)c(C#N)c1C`, the “% Inhibition” value was -16% and the Z score is 1.44.
For the compound `CC(=O)N1CC[C@@]2(O)CCN(Cc3nc(C)cc(-c4ccccc4)n3)C[C@H]2C1`, the “% Inhibition” value is listed as -6% and the Z score was 1.33.
In the same order, the values of `O=C(c1cc(Cl)c(Cl)[nH]1)N1CCC2(CC1)CNCCO2` are 19% and -2.36.
On the same counts, the results for `CCCc1cc(N2CCC3(CCC(=O)N(Cc4cccnc4)C3)CC2)nc(C)n1` are -5% and 0.77.
In the case of `Cc1cnc(C2CN(Cc3ccccc3)C2)n1CC1CC1`, the “% Inhibition” value is given as -8% and the Z score came out at 1.07.
Turning to `C[C@@H](CNC(=O)Nc1ccccc1N1CCOCC1)c1nccs1`, the “% Inhibition” value is -5% and the Z score came out at 0.54.
Regarding `Cc1ccc(N2CCN(S(=O)(=O)c3ccc(Cl)cc3)[C@@H](C)C2=O)cc1F`, the “% Inhibition” value was -5% and the Z score was found to be 0.73.
For `C=C(C)[C@H](NC(=O)c1cn[nH]c1C)c1ccc(F)c(F)c1`, the “% Inhibition” value came out at 2% and the Z score was -0.34.
Regarding `COCCN(CC(C)C)C(=O)c1ccncc1`, the “% Inhibition” value is given as -8% and the Z score was found to be 1.15.
`O=C(NCc1cccnc1-c1ccsc1)c1ccc(Oc2nccs2)cc1`: the “% Inhibition” value was -5% and the Z score is reported as 0.84.
Take `c1ccc2c3c(ccc2c1)[C@@H](NCc1ccncc1)CCCO3`: the “% Inhibition” value worked out at 0% and the Z score was 0.04.
In the case of `Cc1ccc(-c2nnc(NC(=O)c3c[nH]nc3-c3ccccc3)[nH]2)o1`, the “% Inhibition” value was -5% and the Z score came to 0.48.
With `Cc1noc(C)c1CNC(=O)N1CC[C@@](O)(c2ccccc2)[C@H]2CCCC[C@H]21`, the “% Inhibition” value is recorded as -2% and the Z score stood at 0.3.
In the case of `CCCCNCCOc1ccc(C)cc1Br`, the “% Inhibition” value came out at 9% and the Z score was -1.2.
On the same counts, the results for `Cc1cc(-c2ccc3c(=O)n(-c4ccccc4)[nH]c3n2)c(C)o1` are -11% and 1.14.
In the same order, the values of `CN(c1ccccc1)S(=O)(=O)c1ccsc1-c1nc(-c2ccncc2)no1` are -7% and 0.97.
Turning to `CC(=O)Nc1ccc(C(=O)Cn2c(=O)n(S(=O)(=O)c3ccccc3)c3ccccc32)cc1`, the “% Inhibition” value is on record as -34% and the Z score is given as 3.94.
Turning to `Cc1nnc(CNC2CC(NC(=O)OC(C)(C)C)C2(C)C)s1` (stereo not drawn), the “% Inhibition” value was -2% and the Z score was found to be 0.25.
In the same order, the values of `O=C(NCC1(c2ccccc2)CCCCCC1)N1CCO[C@@H](CO)C1` are -5% and 0.59.
Turning to `C[C@@H](Cc1cccs1)N(C)S(=O)(=O)Cc1ccon1`, the “% Inhibition” value is -5% and the Z score amounted to 0.52.
Take `Cc1cc(F)ccc1CS(N)(=O)=O`: the “% Inhibition” value is -5% and the Z score is given as 0.92.
In the same order, the values of `CCn1ncc(-c2cc(C3CC3)nc(N)c2C#N)c1C` are -17% and 2.14.
For the compound `CCCn1nccc1S(=O)(=O)N[C@H]1CCOC[C@@H]1Oc1ccccn1`, the “% Inhibition” value turned out to be 7% and the Z score is given as -1.11.
As to `CC(C)C[C@@H]1CN(C(=O)c2ccc3[nH]ccc3c2)CC[C@]1(C)O`, the “% Inhibition” value was -6% and the Z score is reported as 1.18.
As for `c1ccc(N2CC[C@H](N3CCN(Cc4cccs4)CC3)C2)cc1`, the “% Inhibition” value is on record as -2% and the Z score was determined as 0.4.
On to `CCc1nc2c(c(OC3CCN(S(=O)(=O)Cc4ccccc4)CC3)n1)CCOCC2`, for which the “% Inhibition” value was -8% and the Z score was determined as 0.97.
Take `COc1cccc(CNC(=O)c2c(C)noc2-c2cccs2)c1`: the “% Inhibition” value is 11% and the Z score is -1.79.
Consider `Cc1cc2c(c(N)c1C)[C@@H](C)CC21CCCCC1`, for which the “% Inhibition” value is -2% and the Z score amounted to 0.18.
On the same counts, the results for `Cc1noc2nc(-c3cnn(C)c3)cc(C(=O)Nc3ccn(C(C)C)n3)c12` are 25% and -2.8.
On the same counts, the results for `Cc1nnsc1C(=O)NCC1CCN(c2cnccn2)CC1` are -4% and 0.59.
On the same counts, the results for `c1cc2nnnn2nc1NC(C1CCCC1)C1CCCC1` are 3% and -0.33.
Consider `CCn1c([C@H]2CCCN(Cc3ccccc3Cn3cccn3)C2)n[nH]c1=O`, for which the “% Inhibition” value is -8% and the Z score came out at 1.07.
`Cc1csc(NC(=O)c2c(-c3ccccc3)c(-c3ccccc3)n[nH]c2=O)n1`: the “% Inhibition” value was found to be 5% and the Z score is -0.94.
Regarding `COCC(=O)N1C[C@H](Nc2ccc(C(F)(F)F)cn2)[C@@H](C2CC2)C1`, the “% Inhibition” value is -6% and the Z score is listed as 1.2.
Consider `COCCN(C(=O)c1cc(C)oc1C)c1ccncc1`, for which the “% Inhibition” value is 4% and the Z score is recorded as -0.65.
As to `Cc1ccc(S(=O)(=O)NCc2nnc(C(=O)Nc3ccccc3F)s2)c(C)c1`, the “% Inhibition” value amounted to 9% and the Z score is reported as -1.08.
In the same order, the values of `CN(Cc1cn(CC(N)=O)nn1)C[C@]1(O)CCc2ccccc21` are -4% and 0.35.
As to `O=S(=O)(c1ccc2oc(Nc3ccc(F)c(Cl)c3)nc2c1)N1CCOCC1`, the “% Inhibition” value is -6% and the Z score amounted to 1.03.
Regarding `FC(F)(F)c1nc2nccc(-c3cccc4ccccc34)n2n1`, the “% Inhibition” value is -8% and the Z score amounted to 1.06.
Regarding `Cc1nonc1CC(=O)N[C@H]1CC(=O)N(CCCc2ccccc2)C1`, the “% Inhibition” value was -10% and the Z score worked out at 1.21.
For `COc1ccccc1Cc1n[nH]c(CNC2CC2)n1`, the “% Inhibition” value came to 13% and the Z score is listed as -1.67.
Take `O=C(O)[C@]12CN(Cc3ccncc3)C[C@H]1CN(Cc1ccccc1Cl)C2`: the “% Inhibition” value is -9% and the Z score is 1.71.
Regarding `CNC(=O)C1(NC(=O)CCCc2ccccn2)CCCC1`, the “% Inhibition” value is recorded as -7% and the Z score is 0.76.
In the case of `Cc1c[nH]c(C(C)(C)NC(=O)c2ccc3[nH]c(=O)[nH]c3c2)n1`, the “% Inhibition” value is -13% and the Z score worked out at 1.78.

A word on the % Inhibition: it is the drop in the measured response relative to a control, in per cent.
